# This is one part of the list.
# Test system: HepG2
# Assay: cytotoxicity call (relative viability < 0.9)
# Settings: 10 µM
row,SMILES,cytotoxicity call
1,NCCCCCc1nc2ccccc2[nH]1,inactive
2,C[C@H]1CCCCO[C@@H](CN(C)CC2CCCCC2)[C@@H](C)CN([C@@H](C)CO)C(=O)c2cc(NC(=O)Nc3cccc4ccccc34)ccc2O1,active
3,O=C(O)C[C@H]1CC[C@H]2[C@@H](COC[C@H](O)CN2S(=O)(=O)c2ccc(F)cc2)O1,inactive
4,CC(C)NC(=O)Nc1cccc2c1O[C@H](CN(C)S(=O)(=O)c1ccc(F)cc1)[C@@H](C)CN([C@@H](C)CO)C2=O,inactive
5,CO[C@H]1CN(C)C(=O)c2cc(NC(=O)C3CC3)ccc2OC[C@@H](C)N(C(=O)C2CCOCC2)C[C@H]1C,inactive
6,CC(C)NC(=O)Nc1ccc2c(c1)CC(=O)N([C@H](C)CO)C[C@H](C)[C@H](CN(C)C(=O)Nc1ccc3c(c1)OCO3)O2,inactive
7,C[C@@H]1CCCCO[C@@H](CN(C)C(=O)c2ccncc2)[C@H](C)CN([C@H](C)CO)C(=O)c2cc(NC(=O)C3CCCCC3)ccc2O1,inactive
8,Cc1noc(C)c1NC(=O)N(C)C[C@@H]1Oc2c(NC(=O)c3ccc(-c4nccs4)cc3)cccc2C(=O)N([C@H](C)CO)C[C@@H]1C,inactive
9,C[C@@H]1CCCCO[C@@H](CN(C)C(=O)Nc2ccc(C(F)(F)F)cc2)[C@H](C)CN([C@H](C)CO)C(=O)c2cc(NS(C)(=O)=O)ccc2O1,inactive
10,CN1CCN(C(=O)C[C@@H]2C=C[C@@H](NC(=O)Cc3ccccn3)[C@@H](CO)O2)CC1,inactive
11,C[C@H](CO)N1C[C@H](C)[C@H](CN(C)Cc2ccc(C(F)(F)F)cc2)OCCCC[C@H](C)Oc2ccc(NS(=O)(=O)c3cccs3)cc2C1=O,active
12,C[C@@H]1CN([C@H](C)CO)C(=O)c2cc(NS(=O)(=O)c3cccs3)ccc2O[C@H]1CN(C)Cc1ccncc1,inactive
13,C[C@@H]1CN([C@@H](C)CO)C(=O)c2cc(NS(=O)(=O)c3ccc(Cl)cc3)ccc2O[C@H]1CN(C)S(=O)(=O)c1cn(C)cn1,inactive
14,COc1ccc2c3c([nH]c2c1)[C@@H](CO)N(C[C@]13CCN(CC1)Cc1ccccc1OC)C(=O)Nc1ccc(cc1)F,active
15,CO[C@@H]1CN(C)C(=O)c2cc(NS(C)(=O)=O)ccc2OC[C@@H](C)N(C(=O)C2CCOCC2)C[C@@H]1C,inactive
16,CO/N=[N+](\[O-])N(C)C[C@@H](C)O,inactive
17,C[C@@H]1CN([C@H](C)CO)C(=O)c2c(c3ccccc3n2C)-c2ccccc2CO[C@@H]1CN(C)Cc1ccc(F)cc1,inactive
18,C[N+]1(C)C2CCC1CC(OC(=O)C(O)c1ccccc1)C2.[Br-] (stereo not given),inactive
19,NCc1cccc(Cl)c1,inactive
20,C[C@H]1CCCCO[C@@H](CN(C)C(=O)Nc2ccccc2)[C@@H](C)CN([C@@H](C)CO)C(=O)c2cc(NC(=O)C3CCCCC3)ccc2O1,inactive

row,SMILES,cytotoxicity call
1,CN1CCN(C(=O)C[C@H]2CC[C@H]3[C@@H](COC[C@@H](O)CN3C(=O)Nc3cc(Cl)cc(Cl)c3)O2)CC1,inactive
2,NC(=O)NCC#Cc1ccc2c(c1)[C@]1(C(=O)N2)[C@H](c2ccccc2OCCO)N2[C@H](c3ccccc3)[C@H](c3ccccc3)OC(=O)[C@H]2[C@@H]1C(=O)N1CCN(c2ncccn2)CC1,inactive
3,Cc1noc(C)c1NC(=O)N(C)C[C@@H]1Oc2ccc(NC(=O)Cn3cnnn3)cc2C(=O)N([C@H](C)CO)C[C@@H]1C,inactive
4,CN1CCN(C(=O)C[C@H]2C[C@H]3c4cc(NC(=O)c5ccc6c(c5)OCO6)ccc4O[C@H]3[C@@H](CO)O2)CC1,inactive
5,CNC(=O)c1cnn(-c2nc(N)c3ncn([C@@H]4O[C@H](CO)[C@@H](O)[C@H]4O)c3n2)c1,inactive
6,C[C@H](CO)N1C[C@H](C)[C@@H](CN(C)S(=O)(=O)c2ccccc2)Oc2ncc(C#Cc3ccccc3F)cc2C1=O,inactive
7,CC(C)NC(=O)N(C)C[C@@H]1Oc2c(NS(=O)(=O)c3ccccc3)cccc2C(=O)N([C@@H](C)CO)C[C@@H]1C,inactive
8,C[C@H](CO)N1C[C@H](C)[C@H](CN(C)C(=O)Nc2ccc(C(F)(F)F)cc2)Oc2c(NC(=O)Nc3ccc(C(F)(F)F)cc3)cccc2C1=O,active
9,C[C@@H]1CCCCO[C@@H](CN(C)Cc2ccc(C(=O)O)cc2)[C@@H](C)CN([C@H](C)CO)C(=O)c2cc(NC(=O)Nc3cccc4ccccc34)ccc2O1,inactive
10,C[C@@H]1CN([C@@H](C)CO)C(=O)c2cc(-c3cncnc3)cnc2O[C@@H]1CN(C)C(=O)CN1CCOCC1,inactive
11,Cc1noc(C)c1NC(=O)N(C)C[C@@H]1OCCCC[C@H](C)Oc2ccc(NC(=O)Nc3ccc(F)cc3)cc2C(=O)N([C@@H](C)CO)C[C@@H]1C,inactive
12,Cc1ccc(S(=O)(=O)Nc2ccc3c(c2)C(=O)N([C@H](C)CO)C[C@@H](C)[C@H](CN(C)S(=O)(=O)c2ccc(C)cc2)OCCCC[C@@H](C)O3)cc1,inactive
13,CN1[C@@H]2c3ccc(-c4ccccc4)c(=O)n3C[C@H]1[C@H](CO)[C@H]2C(=O)NCCCN1CCOCC1,inactive
14,COc1ccc(S(=O)(=O)N(C)C[C@@H]2Oc3ccc(NC(=O)CCCN(C)C)cc3CC(=O)N([C@@H](C)CO)C[C@@H]2C)cc1,inactive
15,CO[C@@H]1CN(C)C(=O)c2ccc(NS(C)(=O)=O)cc2OC[C@@H](C)N(S(C)(=O)=O)C[C@H]1C,inactive
16,C[C@@H]1CN([C@H](C)CO)C(=O)c2ccccc2-c2ccccc2CO[C@H]1CN(C)S(=O)(=O)c1cn(C)cn1,inactive
17,C[C@@H]1CCCCO[C@@H](CN(C)C(=O)Nc2ccc(C(F)(F)F)cc2)[C@H](C)CN([C@@H](C)CO)C(=O)c2cc(NC(=O)NC3CCCCC3)ccc2O1,inactive
18,C[C@@H]1CN([C@H](C)CO)C(=O)CCCn2nncc2CO[C@@H]1CN(C)S(=O)(=O)c1ccccc1C#N,inactive
19,C[C@H](CO)N1C[C@H](C)[C@@H](CN(C)CC2CC2)Oc2c(NS(=O)(=O)c3cccs3)cccc2C1=O,inactive
20,C[C@H]1CN([C@@H](C)CO)C(=O)c2cc(NS(=O)(=O)c3cccs3)ccc2O[C@H]1CN(C)S(=O)(=O)c1cccs1,inactive

# — the antibiotic and cytotoxicity screens of Wong et al. (2023)
